Experimental data taken from PubChem BioAssay AID1347120 (National Center for Advancing Translational Sciences (NCATS), 2019).
About 930 (0.24%) of roughly 390,000 compounds were called active. Inconclusive results, whose numbers are uncertain, are shown with a selection of clear calls. Calls come from the whole dose curve; as a rule, active = well fitted activation curve with a large enough effect; inconclusive = small, poorly fitted or top-dose-only effect; inactive = no such curve, though single readings can be large or run the other way. Potencies beside an inconclusive call are fits to weak or partial responses and may not hold up.

Assay: qHTS for Suppressors of FUS Proteinopathy: Primary screen using FUS-linked yeast assay; note: nearly all actives have a fitted effect of over 55% in size;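 for growth rescue (activation): plate controls were DMSO vehicle for no effect and reference control for full effect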
Details: S. cerevisiae FUS-expressing, OD600, 24 h; Potency: growth rescue; growth rescue (activation): at 76.6 µM (top of the series)
Procedure, shortened: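 Steps: raffinose overnight preculture; dilution to OD 0.005 in 2% galactose minimal medium; compound addition (concentration series); 24hr at 30C, 99% humidity; absorbance read at 600 nm.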
Potency is the fitted concentration of half-maximal effect; tags give direction and shape of the fitted curve.

SMILES	Potency	growth rescue (activation)
Cc1ccc(C)c(S(=O)(=O)c2cn(Cc3ccccc3)c3cc(F)c(F)cc3c2=O)c1	inconclusive: 50.1 µM [activator, single point]	–
Cc1ccc(-n2c(SCC(=O)Nc3ccccc3-c3ccccc3)nnc2-c2ccco2)cc1	inconclusive: 11.2 µM [activator, partial curve, poor fit]	–
CCn1c(SCC(=O)Nc2nccs2)nnc1-c1ccc(S(=O)(=O)N2CCCCC2)cc1	inconclusive: 50.1 µM [activator, single point]	–
NNc1nnc(-c2ccccc2)c(-c2ccccc2)n1	active: 35.5 µM	–
Cc1ccc(C)c(N2C(=O)N(Cc3cc(=O)n4ccccc4n3)c3ccccc3S2(=O)=O)c1	inconclusive: 35.5 µM [activator, single point]	–
Fc1cccc(NC(=S)N2CCc3ccccc32)c1	–	inactive: 27.4%
O=C(OCC(=O)N1CCCCC1)c1n[nH]c(=O)c2ccccc12	–	inactive: -31.7%
COc1nnc(-c2ccc(N3CCOCC3)c(NC(=O)c3ccc(C)cc3)c2)c2ccccc12	inconclusive: 20 µM [activator, partial curve, poor fit]	–
CCOC(=O)c1c(NC(C)=O)sc2c1CCC(C=O)=C2Sc1ccccc1	inconclusive: 11.2 µM [activator, partial curve]	–
Cc1c(Cl)c([N+](=O)[O-])nn1Cc1ccc(C(=O)N/N=C\c2cccc(Br)c2)o1	inconclusive: 3.98 µM [activator, full curve]	–
Cc1ccc(N(CC(=O)N2CCCC2)S(C)(=O)=O)cc1C	inconclusive: 50.1 µM [activator, single point]	–
Cc1cc(C)c2cc(CN(Cc3cccnc3)C(=O)c3ccc(F)cc3)c(Cl)nc2c1	–	inconclusive: 68.5% [activator]
Cc1ccc(NS(=O)(=O)c2ccc(C)c(NC(=O)COc3ccc4ccccc4c3)c2)c(C)c1	inconclusive: 11.2 µM [activator, full curve, poor fit]	–
N#CC1=C(SCC(N)=O)NC2=C(C(=O)c3ccccc32)C1c1ccc(Cl)cc1 (stereo not given)	inconclusive: 5.01 µM [activator, full curve]	–
COc1ccc(OC)c(NC(=O)N2CCN(S(=O)(=O)c3ccc4c(ccn4C)c3)CC2)c1	inconclusive: 31.6 µM [activator, partial curve, poor fit]	–
O=C(OC(C(=O)NCC1CCCO1)c1ccccn1)c1cccs1 (stereo not given)	inconclusive: 39.8 µM [activator, single point]	–
CC(C)[C@H](NC(=O)c1c(F)cccc1F)C(=O)OCC(=O)NNC(=O)c1ccccc1	–	inactive: -15.4%
CCCCC1(CO)C(=O)N(c2ccccc2)N(c2ccccc2)C1=O	inconclusive: 5.01 µM [activator, partial curve, poor fit]	–
CS(=O)(=O)N(CC(=O)N1CCN(c2ccccc2)CC1)Cc1ccc(Cl)cc1	inconclusive: 44.7 µM [activator, single point]	–
CCn1c(C(=O)N2CCC(C(=O)NCCc3ccc(OC)cc3OC)CC2)cc2sccc21	–	inactive: -4%

SMILES	Potency	growth rescue (activation)
CCNC(=S)NNC(=O)CSc1nnc(SCc2cccc3ccccc23)s1	inconclusive: 25.1 µM [activator, single point]	–
CCCCCCCCCCOC(=O)Cn1c(COc2ccccc2OC)[n+](C)c2ccccc21	inconclusive: 31.6 µM [activator, single point]	–
CCCCSc1ncnc2c1c(-c1ccccc1)cn2-c1cccc(F)c1	–	inactive: -16.2%
CSc1nc(SCC(=O)NCc2ccco2)c2c3c(sc2n1)COC(C)(C)C3	inconclusive: 22.4 µM [activator, partial curve, poor fit]	–
COc1ccc(OC)c(-n2c(-c3ccc(S(C)(=O)=O)cc3)cc(C=O)c2C)c1	inconclusive: 3.98 µM [activator, partial curve, poor fit]	–
COc1cc2c(O)c3c(c(-c4ccc5c(c4)OCO5)c2cc1OC)C(=O)OC3	active: 8.91 µM	–
CCOc1cc(CNc2ccc(O)cc2)ccc1OCc1ccc(Cl)cc1	–	inactive: 14.6%
CN(C)S(=O)(=O)c1ccc(C(=O)N2CC(=O)Nc3ccc(Br)cc3C2c2ccc(F)cc2)cc1 (stereo not given)	inconclusive: 50.1 µM [activator, single point]	–
Cc1ccc(CNC(=O)c2ccc(Cn3c(SCc4ccccc4F)nc4cccnc43)cc2)cc1	inconclusive: 28.2 µM [activator, single point]	–
COc1ccc(-c2cc(CNc3nc(NC(C)C)nc4cc(-c5ccccc5)sc34)on2)cc1	inconclusive: 39.8 µM [activator, single point]	–
Cc1cc(C)cc(NC2=CC(c3cccc(F)c3)N(c3cc(C)cc(C)c3)C2=O)c1 (stereo not given)	–	inactive: 11.9%
CCCCCCC[C@@H](C/C=C/CCC(=O)N(C)C/C(=C/Cl)C/C(=C\C(=O)N1CC(OC)=CC1=O)OC)OC	inconclusive: 50.1 µM [activator, single point]	–
COc1ccc(NC(=O)Cn2nc(C(=O)O)c3ccccc3c2=O)cc1OC	inconclusive: 35.5 µM [activator, partial curve, poor fit]	–
CCOC(=O)c1ccc(S(=O)(=O)NCC(c2ccc(N(C)C)cc2)c2c[nH]c3ccccc23)cc1 (stereo not given)	inconclusive: 14.1 µM [activator, partial curve, poor fit]	–
CCOC(=O)c1cc(-c2ccccc2)n(CC(=O)N(C)c2ccc(OC)cc2)c1C	inconclusive: 22.4 µM [activator, partial curve]	–
CCOc1ccc(C2Sc3ccccc3NC3=C2C(=O)OC3)cc1 (stereo not given)	–	inconclusive: 74.7% [activator]
O=c1c(=O)n(-c2cccc(Cl)c2)ccn1Cc1cccc(F)c1	–	inactive: 5.63%
COC(=O)C1CCN(C(=O)c2cc(-c3ccc(Cl)s3)nc3ccccc23)CC1	inconclusive: 25.1 µM [activator, single point]	–
Cc1ccc(C(=O)N(Cc2nc(-c3ccc(C)cc3)no2)C(C)C)cc1	–	inactive: -8.08%
Nc1cc(Cl)nc(N/N=C/c2ccc([N+](=O)[O-])cc2)n1	inconclusive: 12.6 µM [activator, partial curve]	–

SMILES	Potency	growth rescue (activation)
O=C(CSc1nnc(-c2ccccn2)n1-c1ccc(Cl)cc1)Nc1ccccc1-c1ccccc1	inconclusive: 22.4 µM [activator, partial curve]	–
COc1cccc(-c2cnc(C(O)c3ccc(F)c(C)c3)[nH]2)c1 (stereo not given)	–	inactive: -5.52%
Cc1cccc2c(C(=O)N3CCN(c4ccccc4)CC3)cc(-c3ccncc3)nc12	inconclusive: 20 µM [activator, partial curve]	–
COc1ccc(-c2nc(CSCC(=O)N3CCN(c4ccc(OC)cc4)CC3)c(C)o2)cc1	–	inactive: 34.1%
O=S(=O)(c1ccc(N=C2NN=C(c3cc(F)ccc3F)CS2)cc1)N1CCOCC1	inconclusive: 25.1 µM [activator, partial curve, poor fit]	–
COc1ccccc1-n1c(SCC(=O)Nc2ccc(F)cc2)nc2c(c1=O)SCC2	inconclusive: 28.2 µM [activator, single point]	–
CCOC(=O)c1c(NC(=O)CSc2nnc(-c3cccnc3)n2Cc2ccco2)sc(C)c1C	inconclusive: 50.1 µM [activator, single point]	–
Cc1occc1C(=O)Nc1sc2c(c1C(N)=O)CCCCC2	inconclusive: 25.1 µM [activator, partial curve, poor fit]	–
O=C(O)c1ccc2c(c1)S(=O)(=O)c1cc(N3CCN(c4cnccn4)CC3)ccc1C2=O	–	inactive: 6.12%
CC[C@]12c3[nH]c4cc(CCC(=O)N(C)C)ccc4c3CCN1C(=O)[C@@H](CC(=O)NCC13CC4CC(CC(C4)C1)C3)C[C@@H]2C(=O)N1CCN(C(=O)c2ccco2)CC1	inconclusive: 15.8 µM [activator, partial curve, poor fit]	–
COc1ccc(OCCCCn2c(C3CC(=O)N(c4cccc(Cl)c4)C3)nc3ccccc32)cc1 (stereo not given)	inconclusive: 11.2 µM [activator, partial curve]	–
C[C@H](CO)N1C[C@H](C)[C@@H](CN(C)S(=O)(=O)c2ccccc2)Oc2ccc(NC(=O)Nc3ccc4c(c3)OCO4)cc2C1=O	inconclusive: 22.4 µM [activator, partial curve]	–
CC1(C)CC(=O)c2cc(-c3nc(-c4ccc(Cl)cc4)cs3)c(=O)n(-c3ccc(Cl)cc3)c2C1	–	inactive: -15.2%
Cc1ccc2c(c1)[C@H]1[C@H](CO2)[C@H](c2ccccc2)[C@]2(C)C(=O)N(Cc3ccc(Cl)cc3)CC(=O)N12	inconclusive: 28.2 µM [activator, single point]	–
Cc1ccc(Cl)cc1NC(=O)CSC1=Nc2ccccc2C2=NC(Cc3ccccc3)C(=O)N12 (stereo not given)	inconclusive: 20 µM [activator, partial curve]	–
COc1ccc(OC)c(-n2c(SCC(=O)Nc3cccc(S(N)(=O)=O)c3)nc3ccccc3c2=O)c1	inconclusive: 20 µM [activator, partial curve, poor fit]	–
COc1ccc(NC(=O)CN(c2ccc(C)cc2)S(C)(=O)=O)c(OC)c1	–	inactive: 22.8%
CCOC(=O)N1CCN(C(=O)C[C@@H]2C[C@@]3(C(=O)OC)CCCCC=C3N(Cc3cccc4ccccc34)C2=O)CC1	inconclusive: 39.8 µM [activator, single point]	–
NC(=O)c1c(NC(=O)c2ccccc2)sc2c1CCC2	inconclusive: 3.98 µM [activator, partial curve, poor fit]	–
COc1ccc(NC(=O)c2sc3nc(C)c(C(=O)Nc4ccc(C)cc4C)c(-c4ccc(C)o4)c3c2N)cc1	inconclusive: 35.5 µM [activator, partial curve, poor fit]	–
